# MIC of clinical N. gonorrhoeae isolates (2015-2017) by agar dilution on GC agar with 1% IsoVitaleX (ranges not stated); higher = less susceptible. No active / inactive call per row; the paper counts benzylpenicillin above 1 and ceftriaxone above 0.125 mg/L as resistant (EUCAST). The method is stated for benzylpenicillin and ceftriaxone and assumed for the other drugs. '<=' is inferred from pile-ups at the end values. Isolates are numbered anew.
# Assays:
# Experiment in all cases: Agar dilution on enriched GC agar; resistance determinants by microarray.
# [1] = compound: CN[C@@H]1[C@H](O)[C@H](NC)[C@H]2O[C@@]3(O)C(=O)C[C@@H](C)O[C@H]3O[C@@H]2[C@H]1O [spectinomycin]
# [2] = compound: CC[C@H]1OC(=O)[C@H](C)[C@@H](O[C@H]2C[C@@](C)(OC)[C@@H](O)[C@H](C)O2)[C@H](C)[C@@H](O[C@@H]2O[C@H](C)C[C@H](N(C)C)[C@H]2O)[C@](C)(O)C[C@@H](C)CN(C)[C@H](C)[C@@H](O)[C@]1(C)O [azithromycin]
# [3] = compound: CN(C)[C@@H]1C(O)=C(C(N)=O)C(=O)[C@@]2(O)C(O)=C3C(=O)c4c(O)cccc4[C@@](C)(O)[C@H]3C[C@@H]12 [tetracycline]
# [4] = compound: CC1(C)S[C@@H]2[C@H](NC(=O)Cc3ccccc3)C(=O)N2[C@H]1C(=O)O [benzylpenicillin]
# [5] = compound: CO/N=C(\C(=O)N[C@@H]1C(=O)N2C(C(=O)O)=C(CSc3nc(=O)c(O)nn3C)CS[C@H]12)c1csc(N)n1 [ceftriaxone]
Test System,MIC [1] [µg/mL],MIC [2] [µg/mL],MIC [3] [µg/mL],MIC [4] [µg/mL],MIC [5] [µg/mL]
"Neisseria gonorrhoeae isolate 357 (blaTEM plasmid: no, gyrA: wild type, mtrR promoter: wild type, parC: wild type, penA: wild type, ponA: wild type, porB: wild type, rpsJ: wild type, tetM plasmid: no)",32,0.12,0.25,≤ 0.015,≤ 0.002
"Neisseria gonorrhoeae isolate 172 (blaTEM plasmid: no, gyrA: Phe91, Asn95, mtrR promoter: -35delA, parC: Arg87, Glu91, penA: ins345Asp, ponA: Pro421, porB: Asn120, Asp121, rpsJ: Met57, tetM plasmid: no)",16,0.25,2,0.5,0.015
"Neisseria gonorrhoeae isolate 367 (blaTEM plasmid: yes, gyrA: wild type, mtrR promoter: wild type, parC: Asn 87, Lys91, penA: ins345Asp, ponA: Pro421, porB: wild type, rpsJ: Met57, tetM plasmid: yes)",32,0.12,32,16,0.004
"Neisseria gonorrhoeae isolate 174 (blaTEM plasmid: no, gyrA: wild type, mtrR promoter: wild type, parC: wild type, penA: ins345Asp, ponA: wild type, porB: wild type, rpsJ: Met57, tetM plasmid: no)",32,0.06,0.03,0.12,≤ 0.002
"Neisseria gonorrhoeae isolate 245 (blaTEM plasmid: no, gyrA: wild type, mtrR promoter: wild type, parC: wild type, penA: wild type, ponA: wild type, porB: wild type, rpsJ: wild type, tetM plasmid: no)",32,0.03,0.12,≤ 0.015,≤ 0.002
"Neisseria gonorrhoeae isolate 368 (blaTEM plasmid: no, gyrA: wild type, mtrR promoter: wild type, parC: wild type, penA: ins345Asp, ponA: wild type, porB: wild type, rpsJ: wild type, tetM plasmid: no)",32,0.03,0.06,≤ 0.015,0.008
"Neisseria gonorrhoeae isolate 239 (blaTEM plasmid: no, gyrA: wild type, mtrR promoter: wild type, parC: wild type, penA: ins345Asp, ponA: wild type, porB: wild type, rpsJ: wild type, tetM plasmid: no)",16,0.12,0.5,0.06,0.008
"Neisseria gonorrhoeae isolate 406 (blaTEM plasmid: no, gyrA: wild type, mtrR promoter: wild type, parC: wild type, penA: ins345Asp, ponA: Pro421, porB: wild type, rpsJ: Met57, tetM plasmid: no)",8,0.06,0.5,0.06,≤ 0.002
"Neisseria gonorrhoeae isolate 474 (blaTEM plasmid: no, gyrA: wild type, mtrR promoter: wild type, parC: wild type, penA: ins345Asp, ponA: Pro421, porB: wild type, rpsJ: wild type, tetM plasmid: no)",16,0.06,0.06,0.12,≤ 0.002
"Neisseria gonorrhoeae isolate 193 (blaTEM plasmid: no, gyrA: wild type, mtrR promoter: wild type, parC: wild type, penA: wild type, ponA: wild type, porB: wild type, rpsJ: wild type, tetM plasmid: no)",32,0.06,0.25,0.03,≤ 0.002
"Neisseria gonorrhoeae isolate 90 (blaTEM plasmid: no, gyrA: Phe91, Gly95, mtrR promoter: wild type, parC: Arg87, Glu91, penA: ins345Asp, ponA: wild type, porB: Asp120, Ala121, rpsJ: Met57, tetM plasmid: no)",32,0.015,1,0.25,0.004
"Neisseria gonorrhoeae isolate 135 (blaTEM plasmid: no, gyrA: Phe91, Asn95, mtrR promoter: -35delA, parC: Ser87, Gly91, penA: ins345Asp, ponA: Pro421, porB: wild type, rpsJ: Met57, tetM plasmid: no)",16,0.06,0.25,0.25,≤ 0.002
"Neisseria gonorrhoeae isolate 95 (blaTEM plasmid: no, gyrA: Phe91, Asn95, mtrR promoter: wild type, parC: Ser87, Gly 91, penA: ins345Asp, ponA: Pro421, porB: Asp120, Gly121, rpsJ: Met57, tetM plasmid: no)",32,0.06,1,0.25,0.004
"Neisseria gonorrhoeae isolate 401 (blaTEM plasmid: no, gyrA: Phe91, Asn95, mtrR promoter: -35delA, parC: Ser87, Gly91, penA: ins345Asp, ponA: Pro421, porB: wild type, rpsJ: Met57, tetM plasmid: no)",32,0.5,2,0.25,≤ 0.002
"Neisseria gonorrhoeae isolate 128 (blaTEM plasmid: no, gyrA: wild type, mtrR promoter: wild type, parC: wild type, penA: wild type, ponA: wild type, porB: wild type, rpsJ: wild type, tetM plasmid: no)",16,0.03,1,0.03,≤ 0.002
"Neisseria gonorrhoeae isolate 9 (blaTEM plasmid: no, gyrA: wild type, mtrR promoter: wild type, parC: wild type, penA: wild type, ponA: wild type, porB: wild type, rpsJ: wild type, tetM plasmid: no)",16,0.12,1,0.12,0.004
"Neisseria gonorrhoeae isolate 246 (blaTEM plasmid: no, gyrA: wild type, mtrR promoter: wild type, parC: wild type, penA: wild type, ponA: wild type, porB: wild type, rpsJ: wild type, tetM plasmid: no)",32,0.015,0.12,≤ 0.015,≤ 0.002
"Neisseria gonorrhoeae isolate 96 (blaTEM plasmid: no, gyrA: Phe91, Gly95, mtrR promoter: wild type, parC: Arg 87, Glu91, penA: ins345Asp, ponA: Pro421, porB: Lys 120, Gly121, rpsJ: Met57, tetM plasmid: no)",16,0.12,1,2,≤ 0.002
"Neisseria gonorrhoeae isolate 191 (blaTEM plasmid: no, gyrA: wild type, mtrR promoter: wild type, parC: wild type, penA: ins345Asp, ponA: wild type, porB: wild type, rpsJ: wild type, tetM plasmid: no)",8,0.015,0.06,≤ 0.015,≤ 0.002
"Neisseria gonorrhoeae isolate 67 (blaTEM plasmid: no, gyrA: wild type, mtrR promoter: wild type, parC: wild type, penA: ins345Asp, ponA: wild type, porB: wild type, rpsJ: wild type, tetM plasmid: no)",32,0.008,0.06,0.06,0.015
"Neisseria gonorrhoeae isolate 320 (blaTEM plasmid: no, gyrA: wild type, mtrR promoter: wild type, parC: wild type, penA: ins345Asp, ponA: wild type, porB: wild type, rpsJ: Met57, tetM plasmid: no)",16,0.06,0.5,0.03,≤ 0.002
"Neisseria gonorrhoeae isolate 221 (blaTEM plasmid: yes, gyrA: Phe91, Asp95, mtrR promoter: wild type, parC: wild type, penA: ins345Asp, ponA: wild type, porB: wild type, rpsJ: Met57, tetM plasmid: yes)",32,0.12,16,≥ 32,≤ 0.002
"Neisseria gonorrhoeae isolate 408 (blaTEM plasmid: no, gyrA: wild type, mtrR promoter: wild type, parC: wild type, penA: ins345Asp, ponA: Pro421, porB: wild type, rpsJ: Met57, tetM plasmid: no)",32,0.015,0.5,0.06,≤ 0.002
"Neisseria gonorrhoeae isolate 146 (blaTEM plasmid: no, gyrA: wild type, mtrR promoter: wild type, parC: wild type, penA: wild type, ponA: wild type, porB: wild type, rpsJ: wild type, tetM plasmid: no)",32,0.12,0.25,≤ 0.015,≤ 0.002
"Neisseria gonorrhoeae isolate 439 (blaTEM plasmid: no, gyrA: Phe91, Asn 95, mtrR promoter: -35delA, parC: wild type, penA: ins345Asp, ponA: Pro421, porB: Asn120, Asp121, rpsJ: Met57, tetM plasmid: no)",16,0.25,2,1,0.06

# Source: the supplement of paper PMC6657886
